Assay results taken from PubChem BioAssay AID1476 (National Center for Advancing Translational Sciences (NCATS), 2009).
Screen size: about 200,000 compounds; about 4,500 (2.2%) were called active. The inconclusive results got no clear call from the source; some entries with a clear call stand among them for comparison. Calls follow the shape of the dose curve; as a rule, active = well fitted inhibition curve with a large enough effect; inconclusive = small, poorly fitted or top-dose-only effect, or effect the other way; inactive = flat fitted curve, though single readings scatter. Potencies beside an inconclusive call are fits to weak or partial responses and may not hold up.

Molecular target: Cruzipain (Trypanosoma cruzi) (UniProt P25779)
Sequence of UniProt P25779 (P25779 whole entry, looked up): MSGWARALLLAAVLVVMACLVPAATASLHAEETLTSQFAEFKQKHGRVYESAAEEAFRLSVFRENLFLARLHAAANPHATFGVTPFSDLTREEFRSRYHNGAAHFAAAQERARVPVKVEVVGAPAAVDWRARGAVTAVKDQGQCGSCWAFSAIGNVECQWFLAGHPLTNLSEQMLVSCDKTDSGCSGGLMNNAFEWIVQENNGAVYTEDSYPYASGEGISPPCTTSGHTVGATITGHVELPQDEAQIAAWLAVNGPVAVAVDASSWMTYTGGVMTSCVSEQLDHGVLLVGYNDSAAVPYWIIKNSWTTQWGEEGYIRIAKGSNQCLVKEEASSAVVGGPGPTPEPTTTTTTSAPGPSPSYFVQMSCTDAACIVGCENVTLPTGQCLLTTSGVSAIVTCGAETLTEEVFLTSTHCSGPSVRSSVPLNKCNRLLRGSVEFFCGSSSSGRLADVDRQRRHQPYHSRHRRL
Experiment: qHTS Assay for Promiscuous and Specific Inhibitors of Cruzain (without detergent); also: nearly all actives have a fitted effect of over 40% in size;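 as to max response, negative = inhibition: plate controls were enzyme without inhibitor for no effect and buffer without enzyme for full effect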
Details: purified cruzain, Z-FR-AMC fluorescence, no detergent
Summary of the method: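 Purified cruzain at 1.5 nM, pre-incubated 15 min with compound at room temperature in 100 mM sodium acetate pH 5.5, 5 mM DTT, 0.00005% Triton X-100. Reaction started with 2 uM Z-FR-AMC; AMC fluorescence increase over 60 s gives rate.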
Potency is read from the fitted curve at half-maximal effect; tags tell the direction and shape of the fitted curve.

SMILES | max response, negative = inhibition | Potency
CC(C)C(NC(=O)OCc1ccccc1)C(=O)OCC(=O)N1CCCCC1 (stereo not drawn) | inactive: 1.32% | 
COc1cc(CNC(=O)c2cnc3c(-c4cccc(C)c4)c(C)nn3c2C)cc(OC)c1OC | inconclusive: 135% [activator] | 
Cc1ccc(S(=O)(=O)N(C)c2ccc(OCC(=O)Nc3nc4c(ccc5ccccc54)s3)cc2)cc1 |  | active: 3.98 µM
CCN(c1ccccc1)S(=O)(=O)c1ccc(NC(=O)c2nc(S(C)(=O)=O)ncc2Cl)cc1 |  | inconclusive: 31.6 µM [inhibitor, single point]
Cc1ccc(/C=N/N2CCN(c3ccncc3S(=O)(=O)N3CCCCC3)CC2)cc1 |  | inconclusive: 39.8 µM [activator, single point]
CC(C)c1ccc(Nc2sc(C(=O)c3ccccc3)c(N)c2S(=O)(=O)c2ccccc2)cc1 |  | active: 3.98 µM
CCc1nc2ccc(C(=O)N3CCN(c4cccc(Cl)c4)CC3)cc2nc1CC |  | inconclusive: 39.8 µM [activator, single point]
COC(=O)c1cc2c(-c3ccccc3)c(C)c3ccccn3c-2c1C(=O)OC |  | inconclusive: 31.6 µM [activator, single point]
COC(=O)c1c(-c2ccc(C)cc2)csc1NC(=S)NC(=O)c1ccc(F)cc1 |  | active: 12.6 µM
COc1cc(NC(C)CCCN)c2ncccc2c1Oc1ccccc1 (stereo not drawn) |  | inconclusive: 39.8 µM [inhibitor, single point]
COc1ccc(N(CC(=O)NCCc2ccccc2)S(=O)(=O)c2c(C)nn(C)c2C)cc1 |  | inconclusive: 39.8 µM [activator, single point]
O=[N+]([O-])c1ccc(N/N=C/c2cn(Cc3ccc(F)cc3)c3ccccc23)nc1 |  | active: 7.94 µM
CC(=O)c1ccc(Nc2cc(C)nc3nc(Cc4ccccc4)nn23)cc1 | inactive: 7.09% | 
O=C(c1ccco1)N1CCN(C(c2ccc(Cl)cc2)c2nnnn2Cc2ccccc2)CC1 (stereo not drawn) |  | inconclusive: 39.8 µM [activator, single point]
CCn1c(=NC(=O)c2ccco2)sc2cccc(F)c21 | inactive: 4.18% | 
COc1ccc(Cc2nc(-c3ccc(-n4cccc4)cc3)no2)cc1OC |  | inconclusive: 25.1 µM [activator, partial curve]
CCN(CC)S(=O)(=O)c1cc([N+](=O)[O-])ccc1N=Nc1c(O)[nH]c2ccccc12 |  | inconclusive: 31.6 µM [inhibitor, single point]
O=C(O)CC(C(=O)O)N1C(=O)/C(=C/c2ccc(-c3nc4ccccc4s3)o2)SC1=S (stereo not drawn) | inconclusive: 52.1% [activator] | 
Cc1ccc2oc(-c3cccc(NC(=O)/C=C/c4cccc([N+](=O)[O-])c4)c3C)nc2c1 |  | active: 15.8 µM
Oc1ccc(Cl)cc1C=Nc1cnc2ccccc2c1 | inactive: -9.08% | 
CCc1ccc(C2=NN(CCC(=O)NCCc3ccccc3)C(=O)CC2)cc1 |  | inconclusive: 39.8 µM [activator, single point]
N#C/C(=C/c1ccc(N2CCCCCC2)o1)c1ccc(Cl)cc1 |  | inconclusive: 25.1 µM [activator, single point]

SMILES | max response, negative = inhibition | Potency
COc1ccccc1/C=N/NC(=O)c1ccc(NC(=O)c2ccccc2Br)cc1 |  | inconclusive: 39.8 µM [inhibitor, single point]
Cc1ccccc1-c1nn2c(=O)cc(CN3CCN(C(=O)COc4ccccc4Cl)CC3)nc2s1 |  | inconclusive: 31.6 µM [activator, single point]
c1ccc(CN=C2NN=C(c3cc4ccccc4o3)CS2)cc1 |  | inconclusive: 39.8 µM [inhibitor, single point]
CC(C)(C)c1ccc(Cn2nnc3c(=O)[nH]c(C4CCN(C(=O)Cc5cccs5)CC4)nc32)cc1 |  | inconclusive: 25.1 µM [activator, partial curve]
Cc1cc(C(=O)N/N=C/c2ccc(Cl)c([N+](=O)[O-])c2)c(C)n1-c1ccc(F)cc1 |  | active: 7.94 µM
CC(C)Cn1c(-c2cccs2)nc2nc3ccccc3nc21 |  | inconclusive: 12.6 µM [activator, partial curve]
CC1CCc2c(sc3nc(CSc4n[nH]c(N)n4)[nH]c(=O)c23)C1 (stereo not drawn) |  | inconclusive: 31.6 µM [inhibitor, single point]
Cc1cccc(C)c1NC(=O)C(NS(=O)(=O)c1cccs1)c1ccccc1 (stereo not drawn) |  | inconclusive: 39.8 µM [inhibitor, single point]
CC(C)(C)C(=O)NCC(c1ccc2c(c1)OCO2)N1CCOCC1 (stereo not drawn) | inactive: 8.02% | 
O=C(CSc1nnc(-c2cccs2)o1)Oc1ccccc1Cl | inactive: -5.43% | 
O=C(CCSc1ccc(F)cc1)Nc1ccc(-n2cnnn2)cc1 | inactive: -11.7% | 
N#Cc1c(-c2ccccc2)nc(N2CCCCCC2)[nH]c1=O |  | inconclusive: 39.8 µM [inhibitor, single point]
COc1ccccc1N1CCN(S(=O)(=O)/C=C/c2ccccc2)CC1 | inactive: -11.1% | 
COC(=O)c1ccc(NC(=O)CC2C(=O)N(c3ccccc3)C(=O)N2Cc2ccc(F)cc2)cc1 (stereo not drawn) | inactive: -6.19% | 
CC(=O)Oc1ccc(C(=O)[C@H]2[C@H]3C(=O)N(c4ccc5ccccc5c4)C(=O)[C@H]3[C@@H]3C=CC=NN32)cc1 |  | inconclusive: 39.8 µM [inhibitor, single point]
Cc1cccc(N2CCN(C(=O)C3CCN(S(=O)(=O)c4c(C)noc4C)CC3)CC2C)c1 (stereo not drawn) |  | inconclusive: 39.8 µM [activator, single point]
CCCC(=O)OCc1cnc(C)c2oc(=O)c(C(=O)Nc3cccc(C(F)(F)F)c3)cc12 | inactive: 15% | 
Cc1cc(C)c2cc(CN(CCO)C(=O)Nc3ccc(Cl)cc3)c(=O)[nH]c2c1 |  | inconclusive: 39.8 µM [activator, single point]
COc1cccc(Nc2nnc(SCc3nc4ccccc4s3)s2)c1 | inactive: -12.9% | 
O=C(COC(=O)/C=C/c1ccc(Cl)cc1)Nc1ccccc1-c1ccccc1 | inactive: 9.68% | 
CC(=O)N=C1SC2CS(=O)(=O)CC2N1c1ccc(-c2nc3ccc(C)cc3s2)cc1 (stereo not drawn) |  | inconclusive: 39.8 µM [inhibitor, single point]
